{"source": "PubChem BioAssay AID686978", "about": "(National Center for Advancing Translational Sciences (NCATS), 2013)", "note": "“And” between values parts separate entries of the source, which are not always exact repeats. Equal values may be shown once. In all, about 420,000 compounds went through this assay and about 64,000 (15%) were called active. This list was built around the results that the source calls inconclusive (neither active nor inactive); the mix of calls is not that of the screen. Calls follow the shape of the dose curve; as a rule, active = well fitted inhibition curve with a large enough effect; inconclusive = small, poorly fitted or top-dose-only effect; inactive = flat fitted curve, though single readings scatter. Where the call is inconclusive, the potency comes from a doubtful curve fit. % is scaled to controls: 0 for no effect and ±100 for the full control effect; potency is read from the fitted curve at half-maximal effect; tags tell the direction and shape of the fitted curve."}
{"assay": "qHTS for Inhibitors of human tyrosyl-DNA phosphodiesterase 1 (TDP1): qHTS in cells in absence of CPT; also: nearly all actives have a fitted effect of over 55% in size", "details": "DT40 Tdp1-/- hTDP1 cells, no CPT, ATP luminescence, 48 h; activity change, negative = growth inhibition: at 46.2 µM (top of the series)", "summary_of_the_method": "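Growth of hTDP1-complemented DT40 Tdp1-knockout cells is measured by ATP luminescence after at least 48 hr compound exposure at 37 °C, with DMSO substituting for the 20 nM CPT used in the parallel screen.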"}
{"molecule": "Cc1ccc(Cn2c(CCNc3nc(-c4ccc(C)cc4)cs3)nc3cc(C(=O)NCCCO)ccc32)cc1", "Potency": "active: 14.6 µM"}
{"molecule": "Cc1ccc([N+](=O)[O-])cc1S(=O)(=O)Nc1cccc(-c2ccc(N3CCOCC3)nn2)c1", "Potency": "inconclusive: 32.6 µM [inhibitor, single point]"}
{"molecule": "C#Cc1ccc([C@@H]2C=C(C(=O)N3CCN(Cc4ccc5c(c4)OCO5)CC3)O[C@H](OCCCCO)C2)cc1", "Potency": "inconclusive: 29.1 µM [inhibitor, single point]"}
{"molecule": "COc1ccc(CN(CCC(c2ccc(F)cc2)C2CCOC(C)(C)C2)C(=O)c2ccco2)cc1", "note": "(stereo not drawn)", "Potency": "active: 16.4 µM"}
{"molecule": "CCOC(=O)c1sc(Nc2nc3c(OC)cccc3s2)cc1C", "Potency": "active: 16.4 µM"}
{"molecule": "COc1cc(SC)ccc1C(=O)N(Cc1ccccc1)c1ccccn1", "Potency": "inconclusive: 16.4 µM [inhibitor, partial curve]"}
{"molecule": "CC(C)c1ccc(NC(=O)C(c2ccc3c(c2)OCO3)N2CCC3(CC2)OCCO3)cc1", "note": "(stereo not drawn)", "Potency": "inconclusive: 35.5 µM [inhibitor, single point]"}
{"molecule": "COc1ccc(S(=O)(=O)NNC(=O)C2Cc3c(ccc4ccccc34)O2)cc1", "note": "(stereo not drawn)", "Potency": "active: 20.6 µM"}
{"molecule": "COc1ccc(-c2cc(C(F)(F)F)nc(S(=O)(=O)CCC(=O)N3CCOCC3)n2)cc1", "Potency": "active: 11.6 µM"}
{"molecule": "COC(=O)c1cc(S(=O)(=O)N2CCN(c3ccc(C)cc3C)CC2)cn1C", "activity change, negative = growth inhibition": "inactive: -29.6%"}
{"molecule": "Cc1nc(SCC(=O)Nc2cccc(S(=O)(=O)N3CCOCC3)c2)nc(C)c1C", "Potency": "inconclusive: 29.1 µM [inhibitor, single point]"}
{"molecule": "O=C1NC[C@H](Cc2ccccc2)N(C[C@@H]2CCCN2C[C@H](Cc2ccc(O)cc2)N2C[C@H](Cc3ccccc3)N(CC3CCCCCC3)C(=O)C2=O)C1=O", "Potency": "inconclusive: 23.1 µM [inhibitor, single point]"}
{"molecule": "Cc1ccc2c(c1)N(CCC(=O)NCCCN1CCCC1)C(=O)C(C)O2", "note": "(stereo not drawn)", "activity change, negative = growth inhibition": "inactive: 0.655%"}
{"molecule": "O=C(CCNS(=O)(=O)c1ccccc1F)NC1CCCCCC1", "activity change, negative = growth inhibition": "inactive: 19.1%"}
{"molecule": "Cc1nc(C(=O)NCC(=O)c2ccccc2)c(C(F)(F)F)o1", "activity change, negative = growth inhibition": "inactive: -2.16%"}
{"molecule": "CC(C)Oc1ccc(CNC(=O)C2COc3ccccc3C2)cc1", "note": "(stereo not drawn)", "activity change, negative = growth inhibition": "inconclusive: -32.1% [inhibitor]"}
{"molecule": "COc1ccc(NC(=O)COC(=O)Cc2c[nH]c3ccccc23)cc1OC", "activity change, negative = growth inhibition": "inactive: -0.461%"}
{"molecule": "CCOC(=O)c1cnc2c(-c3ccc(Cl)cc3)c(C)nn2c1N", "activity change, negative = growth inhibition": "inactive: -4.17%"}
{"molecule": "Cc1ccccc1-c1nc(CS(=O)CC(=O)NCCc2ccc(Cl)cc2)c(C)o1", "note": "(stereo not drawn)", "Potency": "inconclusive: 29.1 µM [inhibitor, single point] and inconclusive: 23.1 µM [inhibitor, single point]"}
{"molecule": "O=C1CC(c2ccccc2)Cc2[nH]c(=O)c(-c3nc(-c4ccc(F)cc4)cs3)cc21", "note": "(stereo not drawn)", "Potency": "active: 3.26 µM"}
{"molecule": "O=C(NCc1ccccc1)C(c1cc2ccccc2o1)n1c(=O)c(-c2ccco2)nc2ccccc21", "note": "(stereo not drawn)", "Potency": "inconclusive: 29.1 µM [inhibitor, single point]"}
{"molecule": "CCN(CC)CCNC(=O)c1ccc(NC(=O)c2cc(S(=O)(=O)N3CCCCC3)ccc2N2CCOCC2)cc1", "activity change, negative = growth inhibition": "inactive: -16.5%"}
{"molecule": "CCCC(=O)N1CCC1(C)C(=O)Nc1ccc(C)c(C)c1", "note": "(stereo not drawn)", "Potency": "inconclusive: 29.1 µM [inhibitor, single point]"}
{"molecule": "CCCCCCOc1ccc(-c2nc3ccc(Br)cc3c(=O)o2)cc1", "activity change, negative = growth inhibition": "inactive: 0.414%"}
{"molecule": "COC(=O)c1ccccc1NC(=O)Nc1cccc(OCc2cc(=O)n3cccc(C)c3n2)c1", "Potency": "inconclusive: 6.51 µM [inhibitor, single point]"}
{"molecule": "CCOc1ccc(C2c3c(oc4ccc(C)cc4c3=O)C(=O)N2c2nc(C)c(C)s2)cc1OC", "note": "(stereo not drawn)", "Potency": "active: 7.31 µM"}
{"molecule": "O=C1CN(C(=O)C2CCCCC2)C(c2ccccc2)c2cc(F)ccc2N1", "note": "(stereo not drawn)", "Potency": "inconclusive: 25.9 µM [inhibitor, single point]"}
{"molecule": "CCOc1ccccc1C(=O)Nc1ccc(C(=O)c2ccccc2)cc1", "Potency": "inconclusive: 11.6 µM [inhibitor, partial curve]"}
{"molecule": "O=C(CCc1ccccc1Cl)Nc1cccc(S(=O)(=O)N2CCCC2)c1", "Potency": "inconclusive: 23.1 µM [inhibitor, single point]"}
{"molecule": "CCOC(=O)c1cnc2ccc(OCC)cc2c1N1CCN(c2cccc(Cl)c2)CC1", "Potency": "active: 8.2 µM"}
{"molecule": "COc1ccc(NC(=O)Cn2nnc3sc4c(c3c2=O)CC(C)(C)OC4)cc1", "Potency": "inconclusive: 29.1 µM [inhibitor, single point]"}
{"molecule": "COc1ccc(-c2noc(-c3ccc(N4CCCCC4)c([N+](=O)[O-])c3)n2)cc1", "Potency": "inconclusive: 2.91 µM [inhibitor, single point]"}
{"molecule": "O=C(COC(=O)c1ccc(Br)c(S(=O)(=O)N2CCOCC2)c1)NCCc1ccccc1", "activity change, negative = growth inhibition": "inactive: -13.3%"}
{"molecule": "Cc1cc(C(=O)COc2ccccc2[N+](=O)[O-])c(C)n1C1CC1", "Potency": "inconclusive: 29.1 µM [inhibitor, single point]"}
{"molecule": "COC(=O)c1nn(-c2ccccc2)c(Sc2ccc(Cl)cc2)c1/C=N/O", "Potency": "inconclusive: 5.8 µM [inhibitor, full curve]"}
{"molecule": "CCSC1=C(C#N)C(c2ccc(F)cc2)CC(=O)N1", "note": "(stereo not drawn)", "activity change, negative = growth inhibition": "inactive: -16.3%"}
{"molecule": "Cc1cccc(Cc2c(C)nc3c(C(=O)NCc4ccco4)cnn3c2C)c1", "Potency": "active: 11.2 µM"}
{"molecule": "CN1CCN(CCC(=O)Nc2ccc(OCc3ccccc3)cc2)CC1", "activity change, negative = growth inhibition": "inactive: -2.46%"}
{"molecule": "O=C1c2ccccc2C(=O)C12OC2c1cccc2ccccc12", "note": "(stereo not drawn)", "Potency": "inconclusive: 29.1 µM [inhibitor, single point]"}
{"molecule": "O=C(CCCCCn1c(=S)[nH]c2ccc(N3CCOCC3)cc2c1=O)NCc1ccccc1", "Potency": "inconclusive: 20.6 µM [inhibitor, single point]"}
{"molecule": "Cc1cccc(NC(=O)/C(C#N)=C\\c2ccc(C(=O)O)cc2)c1", "Potency": "inconclusive: 16.4 µM [inhibitor, single point]"}
{"molecule": "CCN(CC)C(=O)C1c2ccccc2Oc2ccccc21", "Potency": "inconclusive: 20.6 µM [inhibitor, partial curve]"}
{"molecule": "NC(=O)CSc1nc(C2CC2)nc2sc3c(c12)CCCC3", "activity change, negative = growth inhibition": "inactive: -7.81%"}
{"molecule": "COc1ccc(C(=O)NCC(=O)N2CCN(c3ccccc3)CC2)cc1", "activity change, negative = growth inhibition": "inactive: -7.94%"}
{"molecule": "CCc1cc(C(=O)N(C)CC(=O)N(CC(C)C)c2c(N)n(CC(C)C)c(=O)[nH]c2=O)sc1C", "activity change, negative = growth inhibition": "inactive: 1.81%"}
{"molecule": "CCOC(=O)C1=C(N)N(c2ccccc2Oc2ccccc2)C(=O)C1", "activity change, negative = growth inhibition": "inconclusive: -30.2% [inhibitor]"}
{"molecule": "CCC(C(=O)OCC(=O)Nc1ccc(C)c(S(=O)(=O)N2CCOCC2)c1)c1ccccc1", "note": "(stereo not drawn)", "Potency": "inconclusive: 25.9 µM [inhibitor, single point]"}
{"molecule": "Cc1ccc(S(=O)(=O)N2CC3(O)CN(C(=O)OC(C)C)N(C(=O)OC(C)C)CC3(OC(=O)NC3CC3)C2)cc1", "note": "(stereo not drawn)", "activity change, negative = growth inhibition": "inconclusive: -32.7% [inhibitor]"}
{"molecule": "Cc1ccc(NC(=O)COC(=O)c2cccc3c2C(=O)c2ccccc2C3=O)c(C)c1", "Potency": "inconclusive: 29.1 µM [inhibitor, single point]"}
{"molecule": "COc1ccc(CC(=O)Nc2ccc(-c3nc4ccccc4s3)cc2Cl)cc1", "Potency": "inconclusive: 29.1 µM [inhibitor, single point]"}
{"molecule": "C=CCOc1ccc(C[C@H](N)C(=O)NC[C@H]2O[C@@H](n3ccc(N)nc3=O)[C@H](O)[C@@H]2O)cc1", "Potency": "inconclusive: 23.1 µM [inhibitor, single point]"}
{"molecule": "CC1(c2ccc([N+](=O)[O-])c(CS(=O)(=O)c3ccccc3)c2)OCCO1", "activity change, negative = growth inhibition": "inactive: -19.1%"}
{"molecule": "CN(CC(=O)Nc1ccc2c(c1)OCCO2)Cc1nc2ccccc2c(=O)[nH]1", "Potency": "inconclusive: 13 µM [inhibitor, partial curve]"}
{"molecule": "COc1ccc(-c2nnc3ccc(SCC(=O)N4CCCC4)nn23)cc1", "Potency": "inconclusive: 20.6 µM [inhibitor, single point]"}
{"molecule": "Cc1ccc(CSc2nnc(SCC(=O)N/N=C/c3ccccc3OCC(=O)O)s2)cc1", "Potency": "inconclusive: 25.9 µM [inhibitor, single point]"}
{"molecule": "CCCc1cc(NCCN(C)C)n2c(nc3ccccc32)c1C#N", "Potency": "inconclusive: 29.1 µM [inhibitor, single point]"}
{"molecule": "COc1ccc(CN2CCNC(=O)C2CC(=O)NCCc2c[nH]c3ccccc23)c(OC)c1", "note": "(stereo not drawn)", "activity change, negative = growth inhibition": "inactive: -17%"}
{"molecule": "Cc1cc(NC(=O)C2CCCN(S(=O)(=O)c3ccc(Br)s3)C2)ccc1Br", "note": "(stereo not drawn)", "Potency": "active: 13 µM"}
{"molecule": "CCc1nc(C)cn1S(=O)(=O)c1cc(C)c(OC)cc1C", "Potency": "inconclusive: 18.4 µM [inhibitor, single point]"}
{"molecule": "Cc1ccc(NC(=O)CNc2cccc(C)c2C)c(C)c1", "Potency": "inconclusive: 3.16 µM [inhibitor, single point]"}
{"molecule": "CCC(C)NCCOCCOc1ccc(C)cc1OC", "note": "(stereo not drawn)", "Potency": "inconclusive: 25.9 µM [inhibitor, single point]"}
{"molecule": "Cc1cc(NC(=O)CN2C(=O)NC(C)(c3ccc(Cl)cc3)C2=O)no1", "note": "(stereo not drawn)", "activity change, negative = growth inhibition": "inactive: -8.83%"}
{"molecule": "COC(=O)c1cc(N/C(N)=N/c2nc(C)cc(C)n2)cc(C(=O)OC)c1", "Potency": "inconclusive: 16.4 µM [inhibitor, partial curve]"}
{"molecule": "COC(=O)[C@@]1(Cc2ccc(F)cc2)[C@H]2c3cc(C(=O)N(C)C)n(Cc4ccc(OC)c(OC)c4)c3C[C@H]2CN1C(=O)c1ccccc1", "Potency": "inconclusive: 29.1 µM [inhibitor, single point]"}
{"molecule": "Cc1ccc(S(=O)(=O)N2CCN(Cc3cc(=O)n4ccccc4n3)CC2)cc1C", "activity change, negative = growth inhibition": "inactive: -13.5%"}
{"molecule": "COc1cc(/C=C2/CCCC(C(=O)C(F)(F)F)=C2O)ccc1O", "activity change, negative = growth inhibition": "inactive: -18%"}
{"molecule": "O=C(c1sccc1-c1ccccc1)N1CCN(S(=O)(=O)c2ccccc2F)CC1", "Potency": "inconclusive: 18.4 µM [inhibitor, single point]"}
{"molecule": "O=C(Nc1ccc(S(=O)(=O)N2CCCC2)cc1)C1CCCCC1", "Potency": "inconclusive: 20.6 µM [inhibitor, partial curve]"}
